From PubChem BioAssay AID1240 (Sanford-Burnham Center for Chemical Genomics, 2008) come the findings set out here.

Out of some 50,000 compounds screened, about 800 (1.6%) showed an effect of 50% or more. The list shows a part of the results.

The assay deals with Bcl-2-like protein 10 (Homo sapiens) (UniProt Q9HD36). As to the kind of experiment: Phenotype converters, Bcl-B/TR3 peptide binding displacement, primary biochemical FP (AID 1240).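 Note: 0% = Bcl-B with tracer peptide and DMSO and 100% = tracer peptide lacking Bcl-B.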 The note with it: GST-Bcl-B / FITC-TR3 peptide fluorescence polarization; stronger effect = higher value; compound at 3.75 mg/L. (In fluorescence polarisation assays a small probe gives low polarisation when free and higher when bound to something large.)
Sequence of UniProt Q9HD36 (Q9HD36 whole entry, looked up): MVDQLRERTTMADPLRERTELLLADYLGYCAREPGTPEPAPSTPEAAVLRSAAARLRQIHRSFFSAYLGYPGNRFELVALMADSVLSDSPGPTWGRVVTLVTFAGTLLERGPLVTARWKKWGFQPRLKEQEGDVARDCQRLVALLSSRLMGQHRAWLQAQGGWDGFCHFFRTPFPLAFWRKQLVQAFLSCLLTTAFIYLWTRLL
Regarding `FC(F)(F)c1ccc(/C=N/N2CCN(Cc3ccc(Cl)cc3)CC2)cc1`, the displacement came out at 10.1%.

Consider `COc1ccc(OC)c(-n2cnc(-c3ccc([N+](=O)[O-])cc3)c2)c1NCc1ccccc1`, for which the displacement was 0.1%.

Consider `CC1CCN(C(=O)c2cncc(Br)c2)CC1`, for which the displacement is 14.9%.

In the case of `Cc1sc(NC(=O)c2cccc(Br)c2)nc1-c1ccccc1`, the displacement was found to be 0.4%.

Take `O=C(Nc1nnc(Cc2ccccc2)s1)c1ccco1`: the displacement is -0.6%.

With `CC(=O)Nc1cc2c(C)cc(=O)oc2cc1C`, the displacement came to 5%.

Consider `O=C(Nc1ccccc1)Nc1ccc(NC(=O)c2ccc(NC(=O)Nc3ccccc3)cc2)cc1`, for which the displacement amounted to 5.7%.

Regarding `C/C(=N/N=C(c1ccccc1)c1ccccc1)c1cccs1`, the displacement is 4.5%.

As to `O=C(O)c1ccccc1C(=O)c1ccc2c3c(cccc13)CC2`, the displacement was determined as 6.5%.

As to `Cc1cc(C)c(OCCCCN2CCCCC2)c(C)c1`, the displacement is -13.7%.

As for `COC(=O)c1cc(Cl)c(NC(=O)c2ccc(F)cc2)cc1OC`, the displacement is -7.3%.

Take `O=C(NN=C(C1CC1)C1CC1)c1cc2ccccc2cc1O`: the displacement was -16.1%.

With `N/N=C(\c1ccccc1)C12CN3CN(CN(C3)C1)C2`, the displacement was 2.7%.

Turning to `O=C1/C(=C/c2ccccc2OCc2ccc([N+](=O)[O-])cc2)SC(=S)N1Cc1ccccc1`, the displacement was 12.7%.

In the case of `O=C(O)c1cc(NC(=O)c2cccc(Br)c2)cc(C(=O)O)c1`, the displacement was -6.4%.

With `Cc1[nH]n(-c2ccccc2)c(=O)c1/C=N/N1C(=O)c2ccccc2C1=O`, the displacement was -31%.

With `O=C1CSC(=Nc2ccc(F)cc2)N1`, the displacement stood at 17.5%.

Regarding `O=C(Nc1ccc(Cl)c(-c2nc3c(ccc4ccccc43)o2)c1)c1ccccc1[N+](=O)[O-]`, the displacement is -28.3%.

On to `Cc1ccc(NC(=S)NCCOc2cccc3ccccc23)c(C)c1`, for which the displacement is -15.4%.

Regarding `COC(=O)c1cccc(N2C(=O)C=CC2=O)c1`, the displacement was 1%.

Regarding `O=C(c1cccc(F)c1F)N1CCN(c2cc(N3CCCC3)c(F)cc2[N+](=O)[O-])CC1`, the displacement is -9%.

Regarding `CCC(=O)NC(C)c1ccc(Br)cc1` (stereo unspecified), the displacement was -0.4%.

For `Cc1cccc(OCC(=O)O/N=C(\N)c2cccc(C)c2)c1`, the displacement is -9.8%.

In the case of `NS(=O)(=O)c1ccc(NC(=O)/C=C/c2ccccc2Cl)cc1`, the displacement is 7.1%.

Take `Cc1ncc(C[n+]2csc(CCOC(=O)CC34CC5CC(CC(C)(C5)C3)C4)c2C)c(N)n1`: the displacement was 8.9%.

For the compound `COc1ccc(C2CC(C(F)(F)F)n3nc(C(=O)NCCCN4CCOCC4)c(Cl)c3N2)cc1OC` (stereo unspecified), the displacement worked out at 2.2%.

Take `O=C(O)CCCCCN1C(=O)C(=O)/C(=C(\O)c2ccc(Br)cc2)C1c1ccccc1` (stereo unspecified): the displacement is -20.6%.

For the compound `O=C(Cc1ccc([N+](=O)[O-])cc1)Nc1ccccc1-c1ccccc1`, the displacement worked out at 5.2%.

On to `O=C1/C(=C/c2cccc(O)c2)SC(=S)N1c1ccc(O)cc1`, for which the displacement worked out at 11.5%.

For the compound `COc1ccc(C(=O)CSc2n[nH]c(-c3ccccc3)n2)cc1[N+](=O)[O-]`, the displacement was -17.2%.

Turning to `Cc1cc(NC(=O)c2ccncc2)no1`, the displacement stood at 0.4%.

`COc1ccc(CNC(=O)CN(CCc2ccccc2)S(=O)(=O)c2ccc(OC)cc2)cc1`: the displacement is -23.7%.

As for `CC(=O)Nc1ccccc1NC(=O)CCc1ccccc1`, the displacement was -4.1%.

`CC(=O)N1c2ccccc2-c2c(ssc2=S)C1(C)C`: the displacement worked out at 9.4%.

`NC(=O)/C(=C\c1ccc(Cl)cc1)NC(=O)c1ccco1`: the displacement stood at 3.2%.

With `CC(=O)Nc1ccccc1NC(=O)COc1ccccc1C`, the displacement stood at 11.1%.

For `S=C1NCCOCCOCCOCCNC(=S)N2CCOCCOCCN1CCOCC2`, the displacement worked out at 14.7%.

As to `Brc1ccccc1CN1CCN(Cc2ccco2)CC1`, the displacement was found to be 2.1%.

On to `Cc1ccc(OCC(=O)N(C)c2ccccc2)c(C)c1`, for which the displacement worked out at 3.3%.

For `Cc1ccc(OCC(=O)Nc2ccccc2O)c(C)c1`, the displacement amounted to 11.1%.

As to `CCc1ccc(NC(=O)c2ccc(Cl)cc2Cl)cc1`, the displacement came out at 0.3%.

For the compound `NS(=O)(=O)c1ccc(NC(=S)Nc2ccc(F)cc2)cc1`, the displacement was -10.6%.

With `Clc1ccc(-c2ncc(-c3ccccc3)o2)cc1`, the displacement amounted to 12.2%.

Turning to `Cc1cccc(C)c1NC(=O)C(C)Oc1cccc(Cl)c1` (stereo unspecified), the displacement was -11.8%.

With `Cc1ccc(-c2ccc(/C=N/N3C(=O)C4C(C3=O)C3C=CC4C34CC4)o2)c([N+](=O)[O-])c1` (stereo unspecified), the displacement stood at 6.9%.

`CCOC(=O)C(O)(CCC(O)(C(=O)OCC)C(=O)OCC)C(=O)OCC`: the displacement was -0.4%.

In the case of `CCN(CC)c1ccc(NC(=O)c2cc(I)ccc2Cl)cc1`, the displacement stood at 7.9%.

For the compound `Cc1ccc(-c2n[nH]c(=S)n2-c2ccccc2C)cc1`, the displacement was found to be 5.1%.

Take `CCOC(=O)c1c(NC(=O)NN)sc2c1CCCC2`: the displacement amounted to 37%.

As to `O=C(Nc1ccc2nn(-c3ccc(Cl)cc3)nc2c1)c1ccccn1`, the displacement amounted to 91%.

Take `COC(=O)c1ccccc1NC(=O)c1cc(Br)ccc1OC`: the displacement worked out at 13%.

Consider `CCSc1nnc(NC(=O)c2ccc(Cl)cc2)s1`, for which the displacement was 2.2%.

`O=C(COc1ccc2ccccc2c1)Nc1ccc(S(=O)(=O)N2CCc3ccccc32)cc1`: the displacement was -6.7%.

For the compound `O=C(Nc1ccc(-c2nc3ccccc3[nH]2)cc1)c1ccc(F)cc1`, the displacement was -5.7%.

In the case of `O=C1/C(=C/C=C/c2ccccc2)SC(=S)N1c1ccc(F)cc1`, the displacement is -5.8%.

As for `COC(=O)C1=C(C)N=c2s/c(=C\c3ccccc3F)c(=O)n2C1/C=C/c1ccccc1` (stereo unspecified), the displacement amounted to 15.3%.

With `COc1c(O)ccc(/C=N/NC(=O)C(O)c2ccccc2)c1[N+](=O)[O-]` (stereo unspecified), the displacement was found to be 9.9%.

For the compound `CC(=O)Oc1ccc(N2C(=O)C3ON(c4ccccc4)C(c4ccc(F)cc4)C3C2=O)cc1` (stereo unspecified), the displacement worked out at 4.4%.

Take `Cc1cc(C)c(OCCCCN2CCC(C)CC2)c(C)c1`: the displacement was -1.3%.

Turning to `COc1cccc(OC)c1C(=O)Nc1ccc(Cl)c(C(N)=O)c1`, the displacement was 2.2%.

As for `CNC(=O)c1c(-c2ccccc2)oc2ccc(O)cc12`, the displacement came to 10.3%.

With `CCOC(=O)c1ccc(NC(=O)CN(c2cccc(Br)c2)S(=O)(=O)c2ccccc2)cc1`, the displacement stood at 44%.

As to `COc1ccc(C(=O)N2CCN(Cc3ccccc3Cl)CC2)cc1`, the displacement is -10.4%.

`O=C(O)CC(C(=O)O)c1c[nH]c2ccccc12` (stereo unspecified): the displacement is 5.8%.

On to `CCOC(=O)C1=C(C)N=c2s/c(=C\c3cccc([N+](=O)[O-])c3)c(=O)n2C1c1ccccc1F` (stereo unspecified), for which the displacement came to 138%.

As to `C=CCOCC(O)CS(=O)Cc1ccc(Cl)cc1` (stereo unspecified), the displacement was -8%.

As for `COc1ccc2ccccc2c1-c1cc(C(=O)N/N=C/c2ccc(C)cc2)[nH]n1`, the displacement is -12.5%.

As to `FC(F)(F)COc1nc(OCC(F)(F)F)nc(N2CCN(c3ccccc3)CC2)n1`, the displacement is 11.9%.

For `Cc1cc(/C=C2/NC(=O)NC2=O)c(C)n1-c1ccc(F)cc1`, the displacement is 15%.

For `CCOC(=O)c1cnc2cc(-c3ccco3)[nH]n2c1=O`, the displacement was 16.3%.

On to `CCOC(=O)C1=C(C)N(c2ccc(OC)cc2)C(=O)/C1=C\c1ccc(O)c(OCC)c1`, for which the displacement stood at 1.1%.
